PMC4336329 (PLoS ONE, 2015)
The whole screen tested about 310,000 compounds, of which about 14,000 (4.5%) showed an effect of 50% or more. The effect is printed as a negative number. The list shows a part of the results.

target: human ether-à-go-go-related gene (hERG) potassium channel (human, UniProt Q12809); assay: primary screen, population patch clamp on CHO cells stably expressing hERG
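Also: peak tail current of the secondary pulse compared with the same well before compound.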

human ether-à-go-go-related gene (hERG) potassium channel, sequence (Q12809 whole entry, looked up): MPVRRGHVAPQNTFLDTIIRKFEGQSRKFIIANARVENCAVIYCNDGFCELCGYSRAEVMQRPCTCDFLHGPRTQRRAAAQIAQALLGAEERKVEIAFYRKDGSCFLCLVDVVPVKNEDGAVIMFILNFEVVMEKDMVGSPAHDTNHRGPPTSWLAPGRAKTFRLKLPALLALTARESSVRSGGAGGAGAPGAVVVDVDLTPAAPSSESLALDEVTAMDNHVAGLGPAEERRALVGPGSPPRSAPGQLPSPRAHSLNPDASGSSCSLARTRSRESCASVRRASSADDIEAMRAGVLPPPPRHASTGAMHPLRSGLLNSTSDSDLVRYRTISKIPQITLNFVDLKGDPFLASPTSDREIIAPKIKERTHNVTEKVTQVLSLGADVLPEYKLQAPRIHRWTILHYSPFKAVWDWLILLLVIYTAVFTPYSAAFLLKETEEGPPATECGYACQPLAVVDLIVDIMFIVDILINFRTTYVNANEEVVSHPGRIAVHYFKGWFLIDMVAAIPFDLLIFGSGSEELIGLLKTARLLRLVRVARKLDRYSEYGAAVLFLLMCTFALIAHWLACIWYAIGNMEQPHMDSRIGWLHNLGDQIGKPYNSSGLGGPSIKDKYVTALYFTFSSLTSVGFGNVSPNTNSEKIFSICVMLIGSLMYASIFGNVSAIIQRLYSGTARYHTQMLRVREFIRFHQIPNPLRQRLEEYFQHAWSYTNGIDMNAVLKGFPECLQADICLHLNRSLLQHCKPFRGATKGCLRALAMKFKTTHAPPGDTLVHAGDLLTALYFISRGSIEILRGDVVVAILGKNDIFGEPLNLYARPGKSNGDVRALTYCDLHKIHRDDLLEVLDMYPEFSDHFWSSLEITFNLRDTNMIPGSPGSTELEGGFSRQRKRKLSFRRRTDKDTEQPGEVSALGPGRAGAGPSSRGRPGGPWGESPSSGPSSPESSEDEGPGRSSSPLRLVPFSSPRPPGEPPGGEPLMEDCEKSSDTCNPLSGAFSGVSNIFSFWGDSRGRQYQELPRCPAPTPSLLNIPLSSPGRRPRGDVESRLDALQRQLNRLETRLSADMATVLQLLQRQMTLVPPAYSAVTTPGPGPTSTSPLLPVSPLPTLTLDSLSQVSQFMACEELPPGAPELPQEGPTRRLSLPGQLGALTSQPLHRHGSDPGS

| Compound | hERG current change (%, negative = inhibition) at 10uM [%] |
| --- | --- |
| CC(C)CC1NC(=O)N(CC(=O)Nc2ccccc2-c2ccccc2)C1=O (stereo not drawn) | -41 |
| CCC(=O)Nc1ccc(N2CCN(C(=O)c3cccs3)CC2)cc1 | -7.15 |
| Cc1nn(CC(=O)N2CCCC2)c(=O)c2nn(-c3ccccc3)c(C)c12 | 9.64 |
| CN(C)c1ccc(/C=N/NC(=O)C[n+]2ccccc2)cc1.[Cl-] | 15.5 |
| CN1CCN(C(=O)C2=C[C@@H](c3ccccc3)C[C@@H](OCc3ccc(CO)cc3)O2)CC1 | -13.2 |
| O=C(Nc1ccc(Oc2ccc3ccccc3c2)cc1)c1ccco1 | 4.72 |
| COc1cc2c(cc1NC(=O)c1cccc(Br)c1)CCCC2 | -1.68 |
| O=C(O)C1C2C=CC(C2)C1C(=O)NCCc1ccccc1 (stereo not drawn) | 4.05 |
| O=C(COC(=O)c1cccnc1SC(F)F)NC1CC1 | -9.64 |
| COc1cc(-c2cccs2)cc(=O)c2c(C)oc(C)c12 | -8.27 |
| COc1cc(OC)c(C2=NOC(C(=O)N3CCN(C(=O)c4ccco4)CC3)C2)cc1Cl (stereo not drawn) | -35.3 |
| CC(C)Sc1cc(Cl)nc(NC(=O)Nc2ccccc2)n1 | 20 |
| Cc1ccc(/C=N\Nc2nc3ccc(Cl)cc3[nH]2)o1 | -8.39 |
| COc1ccc(NC(=O)COC(=O)CCNS(=O)(=O)c2ccc(Cl)cc2)cc1 | -23.2 |
| O=C(Nc1ccc2nc(-c3ccco3)c(-c3ccco3)nc2c1)N1CCN(c2ccccn2)CC1 | -31.5 |
| O=C(Cc1cc(=O)[nH][nH]1)N/N=C/c1cccc2ccccc12 | 11.4 |
| COc1ccc(NC(=O)NNC(=O)C(C)Oc2ccc3ccccc3c2)cc1 (stereo not drawn) | 8.34 |
| CSc1ccccc1C(=O)NCCS(=O)(=O)N1CCN(c2ccc(F)cc2)CC1 | -67.6 |
| CCCCOC(=O)NC(NCC(O)c1ccccc1)(C(F)(F)F)C(F)(F)F (stereo not drawn) | 6.78 |
| CCOC(=O)NC(Nc1sc2c(c1C(N)=O)CCCC2)(C(=O)OCC)C(F)(F)F (stereo not drawn) | -13.4 |
| CSc1ccc(C(=O)/C=C/c2ccc(N)cc2)cc1 | 11.3 |
| COc1ccc(CNC(=O)CN(C)S(=O)(=O)c2ccc3c(c2)n(C)c(=O)c(=O)n3C)cc1 | 17.4 |
| COc1ccc(NC(=O)CSc2nnc(-c3ccccn3)n2-c2ccccc2)cc1OC | -10.1 |
| CCOc1ccc(NC(=S)NCCCn2ccnc2)cc1 | -14.2 |
| O=C(COc1ccc(/C=N/NS(=O)(=O)c2ccccc2)cc1)Nc1ccccc1 | -22.4 |
| CC1(c2ccc(OC(F)F)cc2)NC(=O)N(CC(=O)NCCC2=CCCCC2)C1=O (stereo not drawn) | -12.7 |
| CCCCC(=O)OCC(=O)N1N=C(c2c[nH]c3ccccc23)C(O)C1c1ccc(OC)cc1 (stereo not drawn) | 19.5 |

| Compound | hERG current change (%, negative = inhibition) at 10uM [%] |
| --- | --- |
| CCNS(=O)(=O)c1ccc(C(=O)OCC(=O)N2CCCc3ccccc32)cc1 | -45 |
| Fc1ccc(-c2nc(-c3cccs3)[nH]c2-c2ccc(F)cc2)cc1 | 0.797 |
| Cc1cc(Cl)c(OCCCN(C)C)c(Br)c1.O=C(O)C(=O)O | -40.4 |
| CCOc1ncccc1C(=O)NCCc1ccc(S(N)(=O)=O)cc1 | 5.54 |
| CC(C)C1N(C(=O)CN2CCCCC2)CCN1S(=O)(=O)c1ccccc1 (stereo not drawn) | 8.02 |
| COC(=O)C1=C(C)N(CCCC(=O)O)C(=O)NC1c1ccc(C(F)(F)F)cc1 (stereo not drawn) | -9.41 |
| CC1(C)CC(=O)C2=C(C1)N=C1SCCC(=O)N1C2c1cccc([N+](=O)[O-])c1 (stereo not drawn) | -21.1 |
| COc1cc(OC)cc(C(=O)NC(=S)NNC(=O)Cc2cccs2)c1 | 17.4 |
| N#CCCN(Cc1cccnc1)C(=O)Nc1ccccc1 | -3.06 |
| Cc1ccc(C)c(OCc2cc(C(=O)N3CCN(c4ccccc4C)CC3C)no2)c1 (stereo not drawn) | -2.69 |
| COC(CNC(=O)CC1C(=O)N(Cc2ccccc2)C(C)c2nc3ccccc3n21)OC (stereo not drawn) | 9.2 |
| CCN1CCN(C(=O)Cn2cnc3sc(C)c(S(=O)(=O)N4CCN(c5ncccn5)CC4)c3c2=O)CC1 | 14.6 |
| CCOC(=O)N/N=C/c1c(C)nn(-c2cccc(C(F)(F)F)c2)c1Cl | -10.3 |
| Cc1ccsc1/C=C1\Oc2cc(OCC(=O)c3ccccc3)ccc2C1=O | 2.64 |
| Cc1cccc(NS(=O)(=O)c2cccc(C(=O)NCc3ccccc3CN3CCOCC3)c2)c1 | -26 |
| O=C(NCCc1c[nH]c2ccccc12)C(=O)NCC(c1ccco1)N1CCN(c2ccc(F)cc2)CC1 (stereo not drawn) | 7.65 |
| COc1cccc(CNC(=O)C2CCCN(c3nc4ccccc4o3)C2)c1 (stereo not drawn) | -16.9 |
| CCCN1C(=O)c2cc(C(=O)Nc3ccccc3CC)ccc2C1O (stereo not drawn) | 2.3 |
| CCC(C)c1ccc(OCCN2CCCC2)cc1 (stereo not drawn) | -15.4 |
| C=CCn1c(SCC(=O)N2CCc3ccccc3C2)nc2sc(C)c(C)c2c1=O | -16.9 |
| Cc1nn(C(C)C(=O)Nc2ccccc2Cl)c(=O)c2nn(-c3ccccc3)c(C)c12 (stereo not drawn) | -29 |
| C=CCN1C(=O)NC(=O)/C(=C/c2cc3c4c(c2)CCCN4CCC3)C1=O | -10.2 |
| O=C(N/N=C/c1ccccc1F)c1cccc(NC(=O)c2ccccc2Cl)c1 | -11.2 |
| Cc1cccc(N(CC(=O)N/N=C/c2cc([N+](=O)[O-])ccc2Cl)S(C)(=O)=O)c1C | -15.1 |
| Cc1ccc(C)c(OCC(=O)O/N=C(\N)c2cccnc2)c1 | 2.74 |
| O=S(=O)(Cc1ccccc1Cl)N1CCCCC1 | 1.5 |
| NC(=O)C1CCN(C(=O)c2ccc3nc(-c4ccccc4)c(-c4ccccc4)nc3c2)CC1 | -20 |
